Reference: publication PMC6919601, “Identification of Plasmodium dipeptidyl aminopeptidase allosteric inhibitors by high throughput screening” (PLoS ONE, 2019)
Among all 110,000 compounds or so, about 230 (0.21%) showed an effect of 50% or more. Some of the results follow.

Molecular target: DPAP1 (Plasmodium falciparum, UniProt Q8IIJ9)
Experiment: primary screen, percent inhibition; read by cleavage of a fluorogenic dipeptide substrate; higher = more effect of the substance
Parameters: species or system P. falciparum D10 trophozoite lysates; single well
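Further: 30 min substrate incubation versus DMSO and 10 µM JCP410 controls.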

Sequence of DPAP1 (Q8IIJ9 whole entry, looked up): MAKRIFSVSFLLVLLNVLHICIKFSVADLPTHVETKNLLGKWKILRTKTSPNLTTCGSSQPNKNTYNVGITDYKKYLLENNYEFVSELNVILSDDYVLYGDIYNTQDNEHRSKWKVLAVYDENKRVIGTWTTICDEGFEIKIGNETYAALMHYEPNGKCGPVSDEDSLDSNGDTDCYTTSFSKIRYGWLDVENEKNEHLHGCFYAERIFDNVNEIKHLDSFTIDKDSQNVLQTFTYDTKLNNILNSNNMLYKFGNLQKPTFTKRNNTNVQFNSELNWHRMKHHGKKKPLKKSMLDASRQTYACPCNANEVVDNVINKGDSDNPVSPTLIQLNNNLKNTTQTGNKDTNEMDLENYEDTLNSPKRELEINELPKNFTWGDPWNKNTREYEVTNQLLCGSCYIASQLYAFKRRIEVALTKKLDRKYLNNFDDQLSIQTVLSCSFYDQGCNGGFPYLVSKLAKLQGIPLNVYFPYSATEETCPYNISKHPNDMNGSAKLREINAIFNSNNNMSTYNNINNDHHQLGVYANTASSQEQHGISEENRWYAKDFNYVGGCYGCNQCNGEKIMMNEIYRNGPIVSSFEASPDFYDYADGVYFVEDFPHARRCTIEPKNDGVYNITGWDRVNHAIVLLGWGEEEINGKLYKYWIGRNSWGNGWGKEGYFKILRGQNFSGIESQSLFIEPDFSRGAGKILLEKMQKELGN

Structure (SMILES) | % Inhibition @ 10 uM [%]
Cc1ccc(NC(=O)CN(c2cccc(Cl)c2)S(C)(=O)=O)cc1C | 3.53
O=C(/C=C/c1ccc(Cl)cc1)N1CCCCC1 | 4.54
Cc1ccc2nc3c(nc2c1)[nH]c1ccccc13 | 3.25
N#CCNC(=O)[C@@H](Cc1ccco1)NC(=O)OCc1ccccc1 | 0.079
O=C(Nc1ccc(F)cc1)/C(=C/c1ccccc1Cl)NC(=O)c1ccccc1 | -8.63
COc1ccc(C2=NN(c3ccccc3)CC2)cc1 | -6.25
N=C1/C(=C\c2coc3ccccc3c2=O)C(=O)N=C2SC(C34CC5CC(CC(C5)C3)C4)=NN12 | -3.95
CCC(=O)N1CC23C=CC(CC2CC12CCCCC2)O3 (stereo not shown) | 19.4
CCCN1CCC(N2CCC(O)CC2)CC1 | 2.7
CCc1ccc(S(=O)(=O)c2nnn3c2nc(N2CCN(C)CC2)c2sccc23)cc1 | 2.72
COCCNC(=O)CC12CC3CC(C1)CC(CC(=O)NCCOC)(C3)C2 | 1.84
Cn1cc(/C=C2/CCC/C(=C\c3cnn(C)c3)C2=O)cn1 | -2.9
COc1ccc(CNC(=O)Cn2ncn3nc(-c4ccc(OC)cc4)cc3c2=O)cc1 | -3.08
CCc1ccc(-n2nc(C)c3c(C(=O)O)cc(C)nc32)cc1 | 3.1
c1ccc(COc2ccccc2CNCc2cccnc2)cc1 | -4.52
O=S(=O)(NCc1cccnc1)c1ccc2[nH]c3c(c2c1)CCCC3 | -6.17
Cc1c(O)c(S(=O)c2ccccc2)c(=O)n(-c2ccccc2)c1-c1ccccc1 (stereo not shown) | -3.77
CN(C)CCN(C)Cc1ccc(-c2ccccc2)cc1 | -4.3
COc1cccc(CNC(=O)CN2C(=O)CSc3ncccc32)c1OC | -5.38
COc1cccc(C(=O)N2c3ccccc3Sc3ccccc32)c1 | -4.21
CCCc1ccc(OCC(O)CN2CCN(CC)CC2)cc1 (stereo not shown) | 3.9
COC(=O)c1cc2sc(C)cc2n1Cc1nc(-c2ccc(OC)c(OC)c2)oc1C | -8.57
CC1=NN(c2ccccc2)C(=O)/C1=C\c1cccc([N+](=O)[O-])c1 | -0.999
CCOc1cc(S(=O)(=O)NC2CC(C)(C)NC(C)(C)C2)ccc1Cl | 0.889
O=C(C1c2ccccc2C(=O)N(C2CCCC2)C1c1cccs1)N1CCC(N2CCCCC2)CC1 (stereo not shown) | 2.78

Structure (SMILES) | % Inhibition @ 10 uM [%]
Cc1ccc(C(=O)C2=C(O)C(=O)N(c3nccs3)C2c2ccc(Cl)cc2)cc1 (stereo not shown) | 1.67
COc1cccc(CNCc2ccccc2C(F)(F)F)c1OC | 2.22
Cc1ccc2c(c1)c1c(n2CC(O)CNCc2ccccc2)C(=O)CCC1 (stereo not shown) | 1.96
CC1=C(C(=O)Nc2ccccc2C)C(c2ccc(F)cc2)NC(=O)N1 (stereo not shown) | -1.22
CCC/N=C/c1sc2ccc(OCC)cc2c1O | 2.01
O=C(Cn1nnc2sc3c(c2c1=O)CCCC3)c1cccs1 | 5.54
CCOc1ccc(CNC(=O)c2cc3occc3n2C)cc1 | 1.72
O=S(=O)(CCc1nc2ccccc2[nH]1)c1ccc(Br)cc1 | -1.49
COc1ccc(-c2ccc(C3C(C#N)=C(N)Oc4[nH]nc(C)c43)o2)cc1 (stereo not shown) | 3.91
CCCOc1ccc(-c2nc(CN3CCC(C(=O)NCCC(C)C)CC3)c(C)o2)cc1 | 1.56
C/N=C1\SC(CC(=O)Nc2ccc(OC(F)F)cc2)C(=O)N1C (stereo not shown) | -0.478
Cc1nn(CC(=O)N2CCC(C)CC2)c(=O)c2nn(-c3ccccc3)c(C)c12 | -2.49
COc1ccccc1CNC(=O)c1csc2c1CCCC2 | -3.21
CC(C)Oc1c(-c2ccccc2)c(=O)c1=O | 2.76
COC(=O)C1=CN(Cc2cccs2)C=C(C(=O)OC)C1c1cccc(OC)c1 | -3.28
COC(=O)c1sc2nc(N)c(C#N)c(-c3ccccc3)c2c1N | -1.05
C/C(Cl)=C/CSc1nn2c(=O)c3ccccc3nc2s1 | 5.83
CCSc1nnc(NC(=O)C2CCCN(S(=O)(=O)c3c[nH]cn3)C2)s1 (stereo not shown) | 2.93
COc1ccc(C(=O)c2sc3nc4c(c(-c5cccnc5)c3c2N)CCC4)cc1OC | 17.2
Cc1ccc(CN2CCN(CC(=O)NCc3cccnc3)C2=O)cc1 | 0.0931
CCOc1cc(C2C3=C(O)CCCC3=NC(C)=C2C(=O)N2CCCCC2)cc(Br)c1O (stereo not shown) | -2.47
Cc1cc(-c2[nH]nc3c2C2(C(=O)Nc4ccccc42)C(C#N)=C(N)O3)c(C)s1 (stereo not shown) | -0.736
Clc1ccc(OCCCCCN2CCOCC2)cc1 | 3
Cc1c(-c2nsc(NC(=O)c3cccc(F)c3)n2)nnn1-c1ccc(C(C)C)cc1 | 2.14
CCOc1ccc(CCNC(=O)CN2N=C(c3ccc(Cl)cc3)CCC2=O)cc1OCC | 0.514

Structure (SMILES) | % Inhibition @ 10 uM [%]
COc1cc(C)nc(NCc2ccccc2)n1 | -3.06
CC(C)CCNC(=O)Nc1cn(C)c(=O)c2ccccc12 | 6.77
COCCCNC(=O)c1noc2c1COc1ccccc1-2 | 84.2
Cc1cc(=O)n2nc(N(C)CC(=O)NCc3ccc(F)cc3)sc2n1 | 6.06
COc1ccccc1N1CCN(C(=O)CN(c2ccccc2C)S(=O)(=O)c2ccc(C)cc2)CC1 | 2.37
CCC(C)O/C(O)=C1/C(C)=NC2=C(C(=O)CC(c3ccc(OC)cc3)C2)C1c1ccc(O)cc1 (stereo not shown) | 6.51
CCOC(=O)N1CCC(NC(=O)C2c3ccccc3C(=O)N(CC(C)C)C2c2cccs2)CC1 (stereo not shown) | 1.69
O=C1c2ccsc2OC1c1cccc2ccccc12 (stereo not shown) | -9.29
N#CC1=C(N)Oc2cc(O)ccc2C1c1ccc(-c2ccccc2)cc1 (stereo not shown) | -0.197
COc1ccccc1/C=C/C=c1\sc2nc(-c3ccc(Cl)cc3)nn2c1=O | 0.222
Cc1nn(-c2ccccc2Cl)c(N)c1-c1ccccc1 | -2.19
CC(C)c1ccc(/C=C2N=C(/C=C/c3ccccc3)OC/2=O)cc1 | -2.18
COc1ccc(C(=O)/C=C/c2ccccc2C)c(OC)c1 | 0.255
O=C1c2[nH]nc(-c3ccccc3O)c2C(c2cccc(O)c2)N1CCc1ccccc1 (stereo not shown) | 3.62
CCc1ccc(C2C(C#N)=C(N)Oc3cc(N)ccc32)cc1 (stereo not shown) | 0.777
CN(C)CCN1C(=O)C(O)=C(C(=O)c2cc3ccccc3o2)C1c1ccc(OCc2ccccc2)cc1 (stereo not shown) | -3.13
Cc1oc(-c2cccs2)nc1CN1CCCC(C(=O)NC2CCCCCC2)C1 (stereo not shown) | -1.05
N#CC1(NC(=O)[C@H](Cc2c(F)cccc2F)NC(=O)c2ccc(-c3ccccc3Cl)c(Cl)c2)CCSCC1 | -3.48
Cc1ccc(C2C(C#N)=C(N)OC3=C2C(=O)c2ccccc23)s1 (stereo not shown) | -4.77
COc1ccc(-c2ccc(-c3noc(-c4ccc(OC)c(OC)c4)n3)c(OC)n2)cc1 | 0.415
CN(CCNC(=O)c1ccc(CS(=O)(=O)Cc2ccc(Cl)cc2)o1)CCc1ccccc1 | 5.47
Cc1onc(-c2ccccc2Cl)c1C(=O)NCCc1nc2ccccc2[nH]1 | -0.0678
CC1CCN(C(=O)c2ccc3snnc3c2)CC1 | -0.0235
Clc1cccc2c(N3CCCCCC3)cnnc12 | -6.95
CCCCOc1ccc(C(=O)NC2=NC(=O)CC(c3cc(OC)ccc3OC)N2)cc1 (stereo not shown) | -0.485

Structure (SMILES) | % Inhibition @ 10 uM [%]
CC(C)c1ccc(NC(=O)/C=C\C(=O)O)cc1 | -1.77
Cc1c(C(=O)N2CCC3(CC2)OCCO3)sc2nc3n(c(=O)c12)CCCCC3 | -9.37
Cn1cccc1/C=C1\SC(=O)N(CC(=O)Nc2ccc(Br)cc2)C1=O | -1.98
N#Cc1ccccc1NC(=O)Cc1cccc2ccccc12 | -6.59
O=C(NCc1ccccc1)c1cccc(S(=O)(=O)NCc2ccccc2)c1 | -3.52
Cc1ccc(CSCC(=O)NCCc2ccc(Cl)cc2)cc1 | -2.99
CCCNC(=O)Cn1ncc2c3ccccc3n(Cc3ccccc3)c2c1=O | 3.4
CCC(C)c1ccccc1OCC(=O)Nc1ccc(S(=O)(=O)N2CCCCC2)cc1 (stereo not shown) | -1.44
COc1ccc(F)cc1S(=O)(=O)NC1CC(C)(C)NC(C)(C)C1 | -1.33
CCOC(=O)N1CC=C(c2c(C)[nH]c3ccccc23)CC1 | -6.92
COc1cccc(S(=O)(=O)Nc2ccc(C(=O)N3CCOCC3)cc2)c1 | -6.64
COc1ccc(N(CC(=O)Nc2cc(C)ccc2C)S(C)(=O)=O)cc1Cl | -3.78
CN1C(=O)c2ccccc2C(C(=O)N2CCN(Cc3ccccc3)CC2)C1c1cn(C)c2ccccc12 (stereo not shown) | 43.8
CCCOc1ccc(C(=O)N(Cc2cccc(F)c2)Cc2ccco2)cc1 | 2.29
CCc1ccc(NC(=O)C2CCN(C(=O)c3ccc(Cl)cc3)CC2)cc1 | -5.21
Cc1ccc(-n2nc3c(N4CCCC(C(=O)N5CCCCC5)C4)nnc(C)c3c2C)cc1 (stereo not shown) | -1.05
Cc1cccn2c(=O)c(/C=C(\C#N)C(=O)NCC3CCCO3)c(Oc3ccc(Cl)cc3)nc12 (stereo not shown) | -5.1
Cc1ccc(CNC(=O)c2ccc(CS(=O)(=O)c3cccc(C(F)(F)F)c3)o2)cc1 | 2.14
Cc1ccsc1C1C(C#N)=C(N)OC2=C1C(=O)CC(C)C2 (stereo not shown) | -1.38
Cc1nc(SCC(=O)Nc2ccc(Cl)cn2)[nH]c1CC(C)C | 0.895
O=C(Nc1cc(Cl)c([N+](=O)[O-])cc1Cl)c1cc2ccccc2cc1O | 1.41
Cc1cccc(CNS(=O)(=O)c2ccc(-c3cc(C(F)(F)F)no3)s2)c1 | 1.73
